Source: PubChem BioAssay AID686978 (National Center for Advancing Translational Sciences (NCATS), 2013)
Several values for one entry are separate records, joined by “and”; a condition that tells them apart may be missing. Equal entries are not always repeated. Screen size: about 420,000 compounds; about 64,000 (15%) were called active. The inconclusive results got no clear call from the source; some entries with a clear call stand among them for comparison. Calls come from the whole dose curve; as a rule, active = well fitted inhibition curve with a large enough effect; inconclusive = small, poorly fitted or top-dose-only effect; inactive = flat fitted curve, though single readings scatter. Where the call is inconclusive, the potency comes from a doubtful curve fit.
% is set by controls: 0 for no effect and ±100 for the full control effect; potency is the fitted concentration of half-maximal effect; tags give direction and shape of the fitted curve.

Experiment: qHTS for Inhibitors of human tyrosyl-DNA phosphodiesterase 1 (TDP1): qHTS in cells in absence of CPT; note: nearly all actives have a fitted effect of over 55% in size
Settings: DT40 Tdp1-/- hTDP1 cells, no CPT, ATP luminescence, 48 h; activity change, negative = growth inhibition: at 46.2 µM (top of the series) unless noted
Procedure, shortened: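 Growth kinetics read by CellTiter-Glo luminescence after ≥48 hr at 37 °C. Cells: DT40 Tdp1-/- stably carrying human TDP1, 400 per well, compound exposure in the absence of CPT (DMSO vehicle).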
With Cc1ccccc1NC(=S)NCCc1c[nH]c2ccccc12 the Potency was inconclusive: 29.1 µM [inhibitor, single point]. With O=C(Nc1ccc(F)cc1F)c1cc(-c2ccco2)nc2ccccc12 the Potency was active: 16.4 µM. For CCOC(=O)C1(CCCc2ccccc2)CCN(C(=O)c2cncs2)CC1, the Potency was active: 23.1 µM. In the case of CCC(C)n1c(C)cc(=O)n1C(C)CC (stereo unspecified), the Potency is reported as “inactive”. For COc1cc(SC)ccc1C(=O)NCCOc1ccc(F)cc1, the Potency was active: 16.4 µM. With CCOC(=O)c1nn(-c2ccc(Cl)cc2)c2nnc(Cc3ccccc3)c(=O)n12 the Potency was “inactive”. With c1ccc(-c2nc(N3CCN(c4ccccc4)CC3)nc(-n3ccnc3)n2)cc1 the Potency was active: 16.4 µM. With COc1ccc(NC(=O)N2CCN(S(=O)(=O)c3ccc4c(ccn4C)c3)CC2)cc1OC the Potency was “inactive”. In the case of CCC1CN(C(=O)NCc2ccccc2)c2cc(C)ccc2O1 (stereo unspecified), the Potency is reported as inconclusive: 20.6 µM [inhibitor, single point] and inconclusive: 29.1 µM [inhibitor, single point]. In the case of CN1/C(=C\C(=O)CSc2nnc(NCc3ccccc3)s2)C(C)(C)c2ccccc21, the Potency is reported as inconclusive: 16.4 µM [inhibitor, single point]. For CCCCOC(=O)C1CCCC(C(=O)OCCCC)N1 (stereo unspecified), the Potency was “inactive”. In the case of COc1ccc(CCNC(=O)C(CCC(N)=O)NS(=O)(=O)c2ccc(Cl)cc2)cc1OC (stereo unspecified), the Potency is reported as “inactive”. In the case of O=c1oc2ccccc2cc1-c1csc(NN=C2CCCCC2)n1, the Potency is reported as active: 18.4 µM. For N#Cc1nc(COc2ccc(F)cc2)oc1N1CCN(Cc2ccccc2)CC1, the Potency was inconclusive: 16.4 µM [inhibitor, single point]. In the case of O=C(CCCc1ccccc1)Nc1ccccc1[N+](=O)[O-], the Potency is reported as active: 20.6 µM. In the case of Cc1ccc(S(=O)(=O)NCCSc2nnnn2-c2ccc(C(N)=O)cc2)cc1, the Potency is reported as inconclusive: 29.1 µM [inhibitor, single point]. For CC1Sc2ccc(S(=O)(=O)N3CCC(C(=O)NCc4ccco4)CC3)cc2NC1=O (stereo unspecified), the Potency was inconclusive: 2.91 µM [inhibitor, full curve, poor fit]. In the case of O=C1OC(c2ccccc2)(c2ccc(O)cc2)c2ccccc21 (stereo unspecified), the Potency is reported as inconclusive: 20.6 µM [inhibitor, single point]. In the case of CCCSc1nc(-c2ccc(OC)cc2)cc(-c2ccccc2OC)c1C#N, the Potency is reported as active: 18.4 µM. With O=C(O)CC1(CC(=O)Nc2ccc(Cl)cc2C(=O)c2ccccc2)CCCC1 the Potency was “inactive”. For CCCNc1ccc(S(=O)(=O)N(CC)CC)cn1, the Potency was “inactive”. For COc1cccc(CC(=O)OCC(=O)NC(Cc2ccccc2)C(C)=O)c1 (stereo unspecified), the Potency was “inactive”. For CN(Cc1ccccc1)C(=O)Cn1nnc(-c2ccccc2)c1COc1ccccc1, the Potency was active: 20.6 µM. With O=C(CCC1CCCN(C(=O)c2ccncc2)C1)NCc1ccc(F)c(F)c1 (stereo unspecified) the Potency was inconclusive: 29.1 µM [inhibitor, partial curve, poor fit]. For CC1=C(C(=O)Nc2ccccc2C(=O)N2CCCCC2)SCCO1, the Potency was “inactive”. For O=C(Nc1ccccc1)c1ccc(S(=O)(=O)N2CCCCC2)cc1, the Potency was inconclusive: 20.6 µM [inhibitor, single point]. With Cc1cccc(NC(=O)COc2ccc3oc4c(c3c2)CCCC4)n1 the Potency was inconclusive: 35.5 µM [inhibitor, single point]. With CC(=O)N1CCN(c2ccc(S(=O)(=O)N3CCCCC3)cc2[N+](=O)[O-])CC1 the Potency was inconclusive: 18.4 µM [inhibitor, partial curve, poor fit]. In the case of O=C(NCC1CCCO1)C(c1cccs1)N(Cc1cccs1)C(=O)Cn1nnc(-c2cccs2)n1 (stereo unspecified), the Potency is reported as active: 18.4 µM. For CCCCn1cnc2c(SCc3ccc([N+](=O)[O-])cc3)nc(N)nc21, the Potency was inconclusive: 29.1 µM [inhibitor, partial curve, poor fit]. In the case of CCCCCc1c(-c2ccc(F)cc2)ncn1CCc1ccccc1OC, the Potency is reported as active: 18.4 µM. With CCOC(=O)c1cnc(-n2[nH]c(C)c(Cc3ccccc3)c2=O)[nH]c1=O the Potency was inconclusive: 29.1 µM [inhibitor, single point]. With CCC(=O)NCCc1nc2cc(NC(=O)c3ccc(F)cc3)ccc2n1C the Potency was “inactive”. In the case of N#Cc1ccc(NC(=O)COC(=O)C2Cc3ccccc3CN2C(=O)c2ccccc2)cc1 (stereo unspecified), the Potency is reported as active: 16.4 µM. For Cc1ccc(C(C)C)c(OCC(=O)NN=C2CCCCCCC2)c1, the Potency was inconclusive: 13 µM [inhibitor, partial curve, poor fit]. With COc1cc(CN2CCC(CO)(CCOc3ccccc3)CC2)cc(OC)c1 the Potency was inconclusive: 29.1 µM [inhibitor, single point]. In the case of CCOc1ccc(NC(=O)C2CCN(S(=O)(=O)c3c(C)noc3/C=C/c3c(C)cc(C)cc3C)CC2)cc1, the Potency is reported as active: 6.51 µM. With CCOC(=O)C1=CN(Cc2cccc(F)c2)S(=O)(=O)NC1c1ccc(F)c(Cl)c1 (stereo unspecified) the Potency was inconclusive: 0.013 µM [inhibitor, full curve, poor fit]. For Cc1c([N+](=O)[O-])cc(C(=O)Nc2ccc(Cc3ccncc3)cc2)cc1[N+](=O)[O-], the Potency was “inactive”. For CC(C)=CCc1c2c(c(O)c3c(=O)c(O)c(-c4ccccc4)oc13)C=CC(C)(C)O2, the Potency was “inactive”. With COc1ccc(NC(=O)c2cc(S(=O)(=O)N(Cc3ccccc3)c3ccccc3)ccc2Cl)cn1 the Potency was inconclusive: 20.6 µM [inhibitor, single point]. In the case of ON=C(CCc1ccccc1)CCc1ccccc1, the Potency is reported as “inactive”. In the case of CCOC(=O)c1ccc(NS(=O)(=O)c2ccc3c(c2)OCCO3)cc1, the Potency is reported as active: 29.1 µM. In the case of Oc1ccc(C[C@H]2CNC(=S)N2C[C@H]2CCCN2C[C@H](Cc2ccccc2)N2C[C@H](Cc3ccc(O)cc3)N(CC3CCCCCC3)C2=S)cc1, the Potency is reported as active: 16.4 µM. In the case of O=Cc1cccn1-c1ccc(O)cc1, the Potency is reported as “inactive”. For Cn1nc(C(=O)NCc2ccc(F)cc2)cc1C(=O)NCc1ccc(F)cc1, the Potency was inconclusive: 23.1 µM [inhibitor, single point]. With Cc1noc(C)c1-c1ccc(C(=O)NCC(C)C)c2occc12 the Potency was inconclusive: 29.1 µM [inhibitor, single point]. With CCC(=O)NC1(C(F)(F)F)C(=O)Nc2c1c(=O)n(C)c(=O)n2C (stereo unspecified) the Potency was “inactive”. With CC(C)(C)NS(=O)(=O)c1ccc(NC(=O)NC2CCCCC2)cc1 the Potency was “inactive”. With O=C(COC(=O)C(Cc1ccccc1)NC(=O)c1ccc(Cl)cc1)c1ccc(Cl)cc1 (stereo unspecified) the Potency was “inactive”. In the case of S=C(NCc1cccnc1)c1ccccc1, the Potency is reported as inconclusive: 3.66 µM [inhibitor, partial curve]. For Cc1ccc(OCn2c(=O)sc3ccccc32)cc1, the Potency was inconclusive: 35.5 µM [inhibitor, single point]. In the case of O=[N+]([O-])c1ccc2nc(-c3ccccc3)n(OCc3ccc(Cl)cc3)c2c1, the Potency is reported as active: 9.2 µM. For COc1ccc(OC)c(CCNC(=O)Cn2ccc3cc(S(=O)(=O)N4CCCCC4)ccc32)c1, the Potency was active: 7.31 µM. With O=C(CC1Oc2ccccc2NC1=O)NCc1ccccc1 (stereo unspecified) the Potency was “inactive”. With CCOCCCNC(=O)CC1Oc2ccc(C)cc2NC1=O (stereo unspecified) the Potency was “inactive”. With CC(C)Oc1ccc(S(=O)(=O)N2CCOCC2)cc1NC(=O)C1=COCCO1 the activity change, negative = growth inhibition was inconclusive: -32.5% [inhibitor]. With Cc1oc(-c2ccc(Cl)cc2)nc1CN1CCCC(C(=O)NC2CC2)C1 (stereo unspecified) the Potency was active: 10.3 µM. In the case of Cc1nc2ccc(NC(=O)COc3ccccc3C)cc2s1, the Potency is reported as “inactive”. In the case of CC(=O)c1c(C)[nH]c(C(=O)CSc2nnc(-c3ccc(Cl)cc3)n2CC2CCCO2)c1C (stereo unspecified), the Potency is reported as inconclusive: 18.4 µM [inhibitor, partial curve]. In the case of O=C(COc1ccc2ccccc2c1)N1CCN(C(=O)c2ccco2)CC1, the Potency is reported as “inactive”. With CNC(=S)N(CCc1ccc(OC)c(OC)c1)Cc1cc2c(C)cc(C)cc2[nH]c1=O the Potency was inconclusive: 29.1 µM [inhibitor, single point]. With Cc1cnccc1CN(C)Cc1cn(C)nc1-c1cccc(Cl)c1 the Potency was inconclusive: 20.6 µM [inhibitor, single point]. With CCCN1CCN(CCCNC(=O)c2cc3c(=O)n(C)c4ccccc4c3n2C)CC1 the Potency was inconclusive: 18.4 µM [inhibitor, single point]. In the case of CC1CCCN(C(=O)c2cccc(S(=O)(=O)N3CCCc4ccccc43)c2)C1 (stereo unspecified), the Potency is reported as active: 10.3 µM. In the case of COc1ccc(C2OC34CCCCC3C(C#N)(C#N)C2(C#N)C(=N)O4)cc1 (stereo unspecified), the Potency is reported as active: 7.31 µM. With CCC(=O)Nc1cccc(NC(=O)CSc2nc3c(c(=O)n(C)c(=O)n3C)n2C)c1 the Potency was “inactive”. For CCN(CC)c1ccc(NC(=O)c2sc3ccccc3c2Cl)cc1, the Potency was active: 20.6 µM. With CC(C)[N+](C)(C)CC(O)COc1cccc2ccccc12 (stereo unspecified) the Potency was “inactive”. In the case of Cc1ccccc1NC(=O)CSc1nc2n(n1)CCCCC2, the Potency is reported as “inactive”. With Nn1c(Cc2cccc3ccccc23)nnc1SCCOc1ccc(F)cc1 the Potency was inconclusive: 25.9 µM [inhibitor, single point]. In the case of NC(c1ccccc1)c1csc(Nc2ccc(S(N)(=O)=O)cc2)n1 (stereo unspecified), the Potency is reported as “inactive”. In the case of O=C(N/N=C/c1cc(Cl)cc([N+](=O)[O-])c1O)C(O)(c1ccccc1)c1ccccc1, the Potency is reported as inconclusive: 25.9 µM [inhibitor, single point]. For O=c1c2ccccc2nnn1CSc1nc2sc3c(c2c(=O)n1CC1CCCO1)CCC3 (stereo unspecified), the Potency was inconclusive: 18.4 µM [inhibitor, single point]. With COc1ccc(OC)c(C(c2nnnn2C2CCCC2)N2CCN(c3ccc(F)cc3)CC2)c1 (stereo unspecified) the Potency was inconclusive: 18.4 µM [inhibitor, single point]. In the case of COc1ccc(NC(=O)C(Cc2ccccc2)NS(=O)(=O)c2ccc3c(c2)CCN3C(C)=O)cc1 (stereo unspecified), the Potency is reported as inconclusive: 6.51 µM [inhibitor, partial curve].
